# This is one part of the list.
# B1: Epa10 (protein)
# chain: MNEKIFRYLTLLFLFELARSLPVEDKLNIKKVFEKRAVDFTPFAHYPRPEGCSSPPNSVSVGLHMNLYNYPYLYVKPSTKGMFTNDTNSDADGETDGDSAGGIEGRAGQCWNPEYQDPNFPRFGYKQYGEFGASDNVNGDISWDHNEFTEGCKPVLAALPPGYNYPDEITFSNFTMVLSGYFKPKTSGVYKFELKADDFILFNFGAKNAFECCNREESIDNFGPYVAYAMWPNQADQELEVYLFEDSYYPLRLFYNNRDYHSKFKIGFYPPGQTTITFDFDGYLFMLDDTGNECRDSIRYRTVCDDKVVDDTTYSTRYSTSMVPGGGSDVITIYYIRMKCEEEDCLGQWDPINNVCYSPDDCADDGGYWNGQMCDQSCKLEGGIVNPDTGDCDKSCIESGGFLDENGNCDTTCRDDGGMLVEGQCDYQCKEAGGILVGDHCDTTCVDSGGKLNEDGTCDHSCRDQGGQLDENGECDTSCKDSGGMLIEGECDTSCKDEGGQLDDNNECINHCKDQGGIIDENGNCDTSCKDSGGKLDESGACDTSCRDDGGIIDENGNCNTTCRDDGGIIVGDHCDTSCRDAGGILIEDHCDTTCRDSGGKLNEDGTCDHSCRDQGGQLDENGKCDYSCKNGGGKLDEDGNCDMSCKENGGKLDENGDCDLSCKEDGGKLDGNGDCDYSCKEEGGVIDESGNCNTTCKDSGGQIIDGECNYGCIEVGGVVIDGECDTSCIDSGGILDGDGNCDRSCIESGGVLEDGACNTTCRDSGGQLNVDGTCDTSCRDDGGMLVEGQCDYQCKEAGGILEDGECVFPPTSSSTSETSSTTDQSSLQSDDSSMESSSTPMDSSTIESSSSEIITSESESESVPIASSSSEVMTSESESESIPILTSSSEIPIASSSSEIPVASSSSEIIIPESESESVPVASSSSEIPIASSSSEIPVASSSSEIPVASSSSEIIIPESESESIPIESTSSEAVSSRSESDSSYPTPTPTTTTITTWPNPIQPTTSNSSPIVSSSTETPGIAESSSRISDLESSRRTSILGDDRTRTRTTITSTITEDGQIITITTTVTGFVPEPTGETEGNGSDDENPENPIENNTDENEFLDPEFTDDIPDDPAGPEDNGNGPVNPEQGNDNDPVNLEDSGNNGAVNPEQAPVNDEDNGGNDPVNPEQDNNNGPANPGQDSTNGSGNSDQIDNNPPTPEENAGDGNSNGNDPADPSRRTSILGDERTRASPGGTSQPTGANGNVNGNSPGANVNGGGTGNSNNNNNNNNNNNNGNAPNGGDGSNGDANQGPSRRTSLLGDERTRAGQAAPTGGSSPDNGIAGDTSNNGGAIVSQQVDDGGAGSPRRTSILGDVRSRTTLNGEVLNFEGSGVRRAVAGNLALPLMMVGLVFNL
# Tests used:
# Test in all cases: glycan array binding signal (z-score within array); higher = stronger binding
# Settings in all cases: glycan notation: IUPAC condensed, linker removed
# [1] = molecular target: Gal(b1-4)GlcNAc(b1-2)[Gal(b1-4)GlcNAc(b1-6)]Man(a1-6)[GlcNAc(b1-4)][Gal(b1-4)GlcNAc(b1-2)Man(a1-3)]Man(b1-4)GlcNAc(b1-4)GlcNAc
# Procedure, shortened: (§1)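 From the Consortium for Functional Glycomics database, 3228 arrays were curated, keeping only those whose protein sequence was available. Binding is given as a within-array Z-score averaged across arrays sharing a protein sequence and across linkers. Negative Z-scores can be read as non-binding.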
# [2] = molecular target: Gal(b1-4)GlcNAc(b1-2)[Gal(b1-4)GlcNAc(b1-6)]Man(a1-6)[GlcNAc(b1-4)][Gal(b1-4)GlcNAc(b1-2)[Gal(b1-4)GlcNAc(b1-4)]Man(a1-3)]Man(b1-4)GlcNAc(b1-4)[Fuc(a1-6)]GlcNAc
# Procedure, shortened: as §1
# [3] = molecular target: Gal(b1-4)GlcNAc(b1-3)Gal(b1-3)GalNAc
# Procedure, shortened: as §1
# [4] = molecular target: Gal(b1-4)GlcNAc(b1-3)Gal(b1-3)GlcNAc
# Procedure, shortened: as §1
# [5] = molecular target: Gal(b1-4)GlcNAc(b1-3)Gal(b1-4)Glc
# Procedure, shortened: as §1
# [6] = molecular target: Gal(b1-4)GlcNAc(b1-3)Gal(b1-4)GlcNAc
# Procedure, shortened: as §1
# [7] = molecular target: Gal(b1-4)GlcNAc(b1-3)Gal(b1-4)GlcNAc(b1-2)Man(a1-3)[Gal(b1-4)GlcNAc(b1-3)Gal(b1-4)GlcNAc(b1-2)Man(a1-6)]Man(b1-4)GlcNAc(b1-4)GlcNAc
# Procedure, shortened: as §1
# [8] = molecular target: Gal(b1-4)GlcNAc(b1-3)Gal(b1-4)GlcNAc(b1-2)Man(a1-3)[Gal(b1-4)GlcNAc(b1-3)Gal(b1-4)GlcNAc(b1-2)Man(a1-6)]Man(b1-4)GlcNAc(b1-4)[Fuc(a1-6)]GlcNAc
# Procedure, shortened: as §1
# [9] = molecular target: Gal(b1-4)GlcNAc(b1-3)Gal(b1-4)GlcNAc(b1-2)[Gal(b1-4)GlcNAc(b1-3)Gal(b1-4)GlcNAc(b1-6)]Man(a1-6)[Gal(b1-4)GlcNAc(b1-3)Gal(b1-4)GlcNAc(b1-2)Man(a1-3)]Man(b1-4)GlcNAc(b1-4)GlcNAc
# Procedure, shortened: as §1
# [10] = molecular target: Gal(b1-4)GlcNAc(b1-3)Gal(b1-4)GlcNAc(b1-2)[Gal(b1-4)GlcNAc(b1-3)Gal(b1-4)GlcNAc(b1-6)]Man(a1-6)[Gal(b1-4)GlcNAc(b1-3)Gal(b1-4)GlcNAc(b1-2)Man(a1-3)]Man(b1-4)GlcNAc(b1-4)[Fuc(a1-6)]GlcNAc
# Procedure, shortened: as §1
# [11] = molecular target: Gal(b1-4)GlcNAc(b1-3)Gal(b1-4)GlcNAc(b1-3)Gal(b1-4)GlcNAc
# Procedure, shortened: as §1
# [12] = molecular target: Gal(b1-4)GlcNAc(b1-3)Gal(b1-4)GlcNAc(b1-3)Gal(b1-4)GlcNAc(b1-2)Man(a1-3)[Gal(b1-4)GlcNAc(b1-3)Gal(b1-4)GlcNAc(b1-3)Gal(b1-4)GlcNAc(b1-2)Man(a1-6)]Man(b1-4)GlcNAc(b1-4)GlcNAc
# Procedure, shortened: as §1
# [13] = molecular target: Gal(b1-4)GlcNAc(b1-3)Gal(b1-4)GlcNAc(b1-3)Gal(b1-4)GlcNAc(b1-2)Man(a1-3)[Gal(b1-4)GlcNAc(b1-3)Gal(b1-4)GlcNAc(b1-3)Gal(b1-4)GlcNAc(b1-2)Man(a1-6)]Man(b1-4)GlcNAc(b1-4)[Fuc(a1-6)]GlcNAc
# Procedure, shortened: as §1
# [14] = molecular target: Gal(b1-4)GlcNAc(b1-3)Gal(b1-4)GlcNAc(b1-3)Gal(b1-4)GlcNAc(b1-2)[Gal(b1-4)GlcNAc(b1-3)Gal(b1-4)GlcNAc(b1-3)Gal(b1-4)GlcNAc(b1-6)]Man(a1-6)[Gal(b1-4)GlcNAc(b1-3)Gal(b1-4)GlcNAc(b1-3)Gal(b1-4)GlcNAc(b1-2)Man(a1-3)]Man(b1-4)GlcNAc(b1-4)[Fuc(a1-6)]GlcNAc
# Procedure, shortened: as §1
# [15] = molecular target: Gal(b1-4)GlcNAc(b1-3)Gal(b1-4)GlcNAc(b1-3)Gal(b1-4)GlcNAc(b1-3)Gal(b1-4)GlcNAc(b1-2)Man(a1-3)[Gal(b1-4)GlcNAc(b1-3)Gal(b1-4)GlcNAc(b1-3)Gal(b1-4)GlcNAc(b1-3)Gal(b1-4)GlcNAc(b1-2)Man(a1-6)]Man(b1-4)GlcNAc(b1-4)GlcNAc
# Procedure, shortened: as §1
# [16] = molecular target: Gal(b1-4)GlcNAc(b1-3)Gal(b1-4)GlcNAc(b1-3)Gal(b1-4)GlcNAc(b1-3)Gal(b1-4)GlcNAc(b1-2)Man(a1-3)[Gal(b1-4)GlcNAc(b1-3)Gal(b1-4)GlcNAc(b1-3)Gal(b1-4)GlcNAc(b1-3)Gal(b1-4)GlcNAc(b1-2)Man(a1-6)]Man(b1-4)GlcNAc(b1-4)[Fuc(a1-6)]GlcNAc
# Procedure, shortened: as §1
# [17] = molecular target: Gal(b1-4)GlcNAc(b1-3)Gal(b1-4)GlcNAc(b1-3)Gal(b1-4)GlcNAc(b1-3)Gal(b1-4)GlcNAc(b1-2)[Gal(b1-4)GlcNAc(b1-3)Gal(b1-4)GlcNAc(b1-3)Gal(b1-4)GlcNAc(b1-3)Gal(b1-4)GlcNAc(b1-6)]Man(a1-6)[Gal(b1-4)GlcNAc(b1-3)Gal(b1-4)GlcNAc(b1-3)Gal(b1-4)GlcNAc(b1-3)Gal(b1-4)GlcNAc(b1-2)Man(a1-3)]Man(b1-4)GlcNAc(b1-4)[Fuc(a1-6)]GlcNAc
# Procedure, shortened: as §1
# [18] = molecular target: Gal(b1-4)GlcNAc(b1-3)Gal(b1-4)GlcNAc(b1-3)Gal(b1-4)GlcNAc(b1-3)Gal(b1-4)GlcNAc(b1-3)Gal(b1-4)GlcNAc(b1-2)Man(a1-3)[Gal(b1-4)GlcNAc(b1-3)Gal(b1-4)GlcNAc(b1-3)Gal(b1-4)GlcNAc(b1-3)Gal(b1-4)GlcNAc(b1-3)Gal(b1-4)GlcNAc(b1-2)Man(a1-6)]Man(b1-4)GlcNAc(b1-4)GlcNAc
# Procedure, shortened: as §1
# [19] = molecular target: Gal(b1-4)GlcNAc(b1-3)Gal(b1-4)GlcNAc(b1-3)Gal(b1-4)GlcNAc(b1-3)Gal(b1-4)GlcNAc(b1-3)Gal(b1-4)GlcNAc(b1-2)Man(a1-3)[Gal(b1-4)GlcNAc(b1-3)Gal(b1-4)GlcNAc(b1-3)Gal(b1-4)GlcNAc(b1-3)Gal(b1-4)GlcNAc(b1-3)Gal(b1-4)GlcNAc(b1-2)Man(a1-6)]Man(b1-4)GlcNAc(b1-4)[Fuc(a1-6)]GlcNAc
# Procedure, shortened: as §1
# [20] = molecular target: Gal(b1-4)GlcNAc(b1-3)Gal(b1-4)GlcNAc(b1-3)Gal(b1-4)GlcNAc(b1-3)Gal(b1-4)GlcNAc(b1-3)Gal(b1-4)GlcNAc(b1-2)[Gal(b1-4)GlcNAc(b1-3)Gal(b1-4)GlcNAc(b1-3)Gal(b1-4)GlcNAc(b1-3)Gal(b1-4)GlcNAc(b1-3)Gal(b1-4)GlcNAc(b1-6)]Man(a1-6)[Gal(b1-4)GlcNAc(b1-3)Gal(b1-4)GlcNAc(b1-3)Gal(b1-4)GlcNAc(b1-3)Gal(b1-4)GlcNAc(b1-3)Gal(b1-4)GlcNAc(b1-2)Man(a1-3)]Man(b1-4)GlcNAc(b1-4)[Fuc(a1-6)]GlcNAc
# Procedure, shortened: as §1
# [21] = molecular target: Gal(b1-4)GlcNAc(b1-3)Gal(b1-4)GlcNAc(b1-3)Gal(b1-4)GlcNAc(b1-3)Gal(b1-4)GlcNAc(b1-3)Gal(b1-4)GlcNAc(b1-3)Gal(b1-4)GlcNAc(b1-2)Man(a1-3)[Gal(b1-4)GlcNAc(b1-3)Gal(b1-4)GlcNAc(b1-3)Gal(b1-4)GlcNAc(b1-3)Gal(b1-4)GlcNAc(b1-3)Gal(b1-4)GlcNAc(b1-3)Gal(b1-4)GlcNAc(b1-2)Man(a1-6)]Man(b1-4)GlcNAc(b1-4)GlcNAc
# Procedure, shortened: as §1
# [22] = molecular target: Gal(b1-4)GlcNAc(b1-3)Gal(b1-4)GlcNAc(b1-3)GalNAc
# Procedure, shortened: as §1
# [23] = molecular target: Gal(b1-4)GlcNAc(b1-3)Gal(b1-4)GlcNAc(b1-3)[Gal(b1-4)GlcNAc(b1-3)Gal(b1-4)GlcNAc(b1-6)]GalNAc
# Procedure, shortened: as §1
binder,measurement,setting,value
B1,glycan array binding signal (z-score),[1],-0.174
same,glycan array binding signal (z-score),[2],0.014
same,glycan array binding signal (z-score),[3],-0.228
same,glycan array binding signal (z-score),[4],-0.236
same,glycan array binding signal (z-score),[5],-0.234
same,glycan array binding signal (z-score),[6],-0.078
same,glycan array binding signal (z-score),[7],0.222
same,glycan array binding signal (z-score),[8],0.185
same,glycan array binding signal (z-score),[9],0.211
same,glycan array binding signal (z-score),[10],0.264
same,glycan array binding signal (z-score),[11],-0.023
same,glycan array binding signal (z-score),[12],0.28
same,glycan array binding signal (z-score),[13],0.17
same,glycan array binding signal (z-score),[14],0.654
same,glycan array binding signal (z-score),[15],0.466
same,glycan array binding signal (z-score),[16],0.277
same,glycan array binding signal (z-score),[17],0.73
same,glycan array binding signal (z-score),[18],0.485
same,glycan array binding signal (z-score),[19],0.536
same,glycan array binding signal (z-score),[20],1.31
same,glycan array binding signal (z-score),[21],0.441
same,glycan array binding signal (z-score),[22],-0.021
same,glycan array binding signal (z-score),[23],0.054
